± gives the standard deviation of the averaged measurements. Some of the results follow.
Each sequence was assayed on PfAP2-I AP2 domain 3 (GST-tagged) (assay: gcPBM binding intensity (ln(normalized median fluorescence intensity)); higher = stronger DNA binding).
How it was run: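 The binding buffer was 1× PBS containing 1% milk, 0.2 mg/ml BSA, 0.5% salmon testes DNA and 0.03% Triton X-100. In it, GST-tagged P. falciparum DNA-binding domains expressed in E. coli were applied for 1 h to an Agilent 4 × 180k array of primer-extended double-stranded 36-bp intergenic genomic probes plus negative controls. Binding intensity, read with Alexa488 anti-GST antibody and a 488 nm scan, is the highest Masliner-normalised natural-log median intensity across replicate spots of either probe orientation.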

Row | Sequence | gcPBM binding intensity (ln)
1 | TTTTATAAATATTATACATGCATAATGATAAAAAAA [TGCATGCA_site927] | 7.88 ± 0.58
2 | AAGAAAAGAACAAGAGCATGCACTTAATAAGAATAA [TGCATGCA_site818] | 7.75 ± 0.86
3 | TTAATATATTTTAAAAGTACATAATATTATTTTTTA [XGTACX_site3642] | 7.56 ± 0.38
4 | TAATATGTGGACTTTACACACTTGTTTTAAAATTCT [CACACA_site4605] | 7.68 ± 0.59
5 | ATATATATATATATATGTACTTATTTATTTATTTAT [XGTACX_site4645] | 9.2 ± 0.26
6 | ATATTTTACATATTTGCACACATATATTTATATACA [CACACA_site855] | 9.525 ± 0.007
7 | GAAGACAATTATATGTGTACATATATATACATATAT [XGTACX_site4630] | 7.76 ± 0.29
8 | AGTAGATATTATTATAGTACTTTTTATTTTATATTT [XGTACX_site1551] | 7.55 ± 0.53
9 | GGAATTCATATTAATTGTACATTTAAAGATAGATGA [XGTACX_site3279] | 7.79 ± 0.57
10 | ATATTAAAGATATATACACACATATTTATAAATATA [CACACA_site7127] | 7.58 ± 0.59
11 | AAAATTTATGGAAGGTGTACTGTTAATTATGTATAT [XGTACX_site6446] | 8.14 ± 0.44
12 | TTTTTACTATAAGGGGAAAAAAAAAAAAATAATATA [XGTACX_negctrl_site279] | 7.78 ± 0.28
13 | TAAACATATACACGTACATGCAACGGATTTTTTTTT [TGCATGCA_site70] | 7.83 ± 0.54
14 | CAAGAAAAGAAACACACACACATATATATATATATA [CACACA_site3881] | 9.32 ± 0.38
15 | ATATAACTTTTAAAAGCATGCAAATATTTACTCAAT [TGCATGCA_site396] | 8.08 ± 0.52
16 | TATATATATATATGTGCACACATAATAAAAAAAAAA [CACACA_site3830] | 10.55 ± 0.035
17 | ATATGATTAATTAAGTGTACGTATTTATAATTATAA [XGTACX_site5783] | 8.11 ± 0.18
18 | ATTACAATTTTAATAGTGCATTTTTATATATTTCTA [GTGCAC_site9918] | 9.43 ± 0.32
19 | TTTATTTATCTTTACGCACACACTTGCATGTACAAA [CACACA_site1118] | 9.455 ± 0.021

Row | Sequence | gcPBM binding intensity (ln)
20 | TACCTACCTTTACGGAGTACACAATAATAGTTATAA [XGTACX_site6593] | 7.96 ± 0.49
21 | ATATAAAAATAATAGAGTACAAAAAAAAAATGTATA [XGTACX_site7054] | 7.82 ± 0.52
22 | GATGATACGATTATCACACATTTATACTTTCTACAT [CACACA_site5669] | 7.83 ± 0.61
23 | TGTATACATTATTAAGTGCAAGTAGGGAAAAAAAAA | 9.14 ± 0.23
24 | GTATAATATGAACACACACACACACGCAAAAAAAAA [CACACA_site7036] | 8.22 ± 0.46
25 | ACGTTGAAGAAATACACATGCATATTCTATATATAT [TGCATGCA_site76] | 8.61 ± 0.44
26 | TATATTTTTTAAAAAGCATGCAAAAAATAATGATCA [TGCATGCA_site48] | 7.67 ± 0.61
27 | CTCTTATGCTAGGAAGTGCAATAGTATGGGTACCAC | 10.5 ± 0.34
28 | TCATTTTATTTTTTCACACACACATATATATATATA [CACACA_site3333] | 9.17 ± 0.11
29 | TAATATATATAAACATGTACAAATCAAAAACAAAAG [XGTACX_site4076] | 8.23 ± 0.47
30 | TTGCCCATTTCATTAACACACAAATGTTTATATTCT [CACACA_site4569] | 8.04 ± 0.64
31 | AATACCCATTTTAGTACACACTTAAAAAATTATTTT [CACACA_site5611] | 8.24 ± 0.26
32 | TTAACTCAAGAGTGTACACATATATATATATATATA [CACACA_site4334] | 9.39 ± 0.47
33 | ATTCTTTTTTTTTGGAAATGTATTTTTATGTTTTGT [TGCATGCA_negctrl_site426] | 7.54 ± 0.8
34 | ATTTTAGATGAAAAAGCACACAACATATATATATAT [CACACA_site2295] | 9.59 ± 0.12
35 | TTTTTAAAAAAGTAAAGTACAAAAAAAAGGAATATC [XGTACX_site588] | 8.22 ± 0.76
36 | ATTAGTAAGAATCATTGTACATTATAATATGTGGTA [XGTACX_site1341] | 7.83 ± 0.58
37 | TGCTTCCTTAGGAATGTACACACATATATAATATGT [CACACA_site8048] | 7.78 ± 0.47
38 | ACAAGAAAATATATTTGTACATATATAATTTTATTT [XGTACX_site548] | 7.54 ± 0.52

Row | Sequence | gcPBM binding intensity (ln)
39 | AAAGAAATACAATGATGTACATTTAAAAAAAATTAA [XGTACX_site4324] | 7.72 ± 0.49
40 | TGTAAAACTGAAAAGGGTACATATAAATATATATAT [XGTACX_site69] | 8.65 ± 0.11
41 | ATATATTTATATTTATGTACATATCTTTATTTACGT [XGTACX_site6800] | 7.89 ± 0.45
42 | ATATATATATCGATCTGTACATATATTTATAGACAT [XGTACX_site4236] | 9.1 ± 0.3
43 | ATTTATTTTTATATAACACACAAAGTATAATATAAC [CACACA_site3582] | 7.75 ± 0.46
44 | ATAATTATCATAGGATGTACATATTTATTTTGTATA [XGTACX_site7797] | 7.58 ± 0.28
45 | ATATGTTAAATTATTCGTACGTAAAAAAAAATGGAT [XGTACX_site3465] | 8.38 ± 0.16
46 | ACTATATATTTAATATGTACACATATTTCTGTCGAT [XGTACX_site6878] | 8.08 ± 0.42
47 | TTCCTAAGAATAATCAGTACACATAAAAAGAACATA [XGTACX_site7861] | 7.71 ± 0.61
48 | TAATTTCATCATATTTGTTCCTTCTCAAAATTTTTT [CACACA_negctrl_site217] | 7.62 ± 0.67
49 | GCATTATTTACCACAACACACAAATATTTACCAATC [CACACA_site2669] | 8.52 ± 0.49
50 | CTCTTTTTTTGCAAAAGTACAAATGGGGATATATTT [XGTACX_site5813] | 8.47 ± 0.45
51 | AAAGAAATAAGGTGCACACATATACAGATATATATA [CACACA_site4399] | 10.3 ± 0.4
52 | ATATATTTGATTTACACACTTACAATGTATATAAAT [CACACA_site2993] | 7.84 ± 0.59
53 | ACTCAAACCTTTAGAGTGCAAAAAAAAAAAAAAAAA [GTGCAC_site9952] | 10 ± 0.21
54 | TTGTAAAAATTAATACATATATATATATATATATAT [CACACA_negctrl_site6] | 9.36 ± 0.46
55 | TTAAATAAAAAAATAACACACATATAAATATATATG [CACACA_site3175] | 7.35 ± 0.33
56 | TTACATATTTTTTAACGTACATAAATATATATGTAT [XGTACX_site8406] | 7.96 ± 0.14
57 | TAACTAAGGAATAATACACACAGAAATATAGATTTA [CACACA_site6293] | 7.51 ± 0.68

Reference: the supplement of paper PMC11417369
